# Data taken from paper PMC4336329 (PLoS ONE, 2015).
# In all, about 310,000 compounds went through this assay and about 14,000 (4.5%) showed an effect of 50% or more. The effect is printed as a negative number. The list shows a part of the results.
# Molecular target: human ether-à-go-go-related gene (hERG) potassium channel (human, UniProt Q12809)
# Assay: primary screen, population patch clamp on CHO cells stably expressing hERG
# 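Also: peak tail current of the secondary pulse compared with the same well before compound.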
# Sequence of human ether-à-go-go-related gene (hERG) potassium channel (Q12809 whole entry, looked up): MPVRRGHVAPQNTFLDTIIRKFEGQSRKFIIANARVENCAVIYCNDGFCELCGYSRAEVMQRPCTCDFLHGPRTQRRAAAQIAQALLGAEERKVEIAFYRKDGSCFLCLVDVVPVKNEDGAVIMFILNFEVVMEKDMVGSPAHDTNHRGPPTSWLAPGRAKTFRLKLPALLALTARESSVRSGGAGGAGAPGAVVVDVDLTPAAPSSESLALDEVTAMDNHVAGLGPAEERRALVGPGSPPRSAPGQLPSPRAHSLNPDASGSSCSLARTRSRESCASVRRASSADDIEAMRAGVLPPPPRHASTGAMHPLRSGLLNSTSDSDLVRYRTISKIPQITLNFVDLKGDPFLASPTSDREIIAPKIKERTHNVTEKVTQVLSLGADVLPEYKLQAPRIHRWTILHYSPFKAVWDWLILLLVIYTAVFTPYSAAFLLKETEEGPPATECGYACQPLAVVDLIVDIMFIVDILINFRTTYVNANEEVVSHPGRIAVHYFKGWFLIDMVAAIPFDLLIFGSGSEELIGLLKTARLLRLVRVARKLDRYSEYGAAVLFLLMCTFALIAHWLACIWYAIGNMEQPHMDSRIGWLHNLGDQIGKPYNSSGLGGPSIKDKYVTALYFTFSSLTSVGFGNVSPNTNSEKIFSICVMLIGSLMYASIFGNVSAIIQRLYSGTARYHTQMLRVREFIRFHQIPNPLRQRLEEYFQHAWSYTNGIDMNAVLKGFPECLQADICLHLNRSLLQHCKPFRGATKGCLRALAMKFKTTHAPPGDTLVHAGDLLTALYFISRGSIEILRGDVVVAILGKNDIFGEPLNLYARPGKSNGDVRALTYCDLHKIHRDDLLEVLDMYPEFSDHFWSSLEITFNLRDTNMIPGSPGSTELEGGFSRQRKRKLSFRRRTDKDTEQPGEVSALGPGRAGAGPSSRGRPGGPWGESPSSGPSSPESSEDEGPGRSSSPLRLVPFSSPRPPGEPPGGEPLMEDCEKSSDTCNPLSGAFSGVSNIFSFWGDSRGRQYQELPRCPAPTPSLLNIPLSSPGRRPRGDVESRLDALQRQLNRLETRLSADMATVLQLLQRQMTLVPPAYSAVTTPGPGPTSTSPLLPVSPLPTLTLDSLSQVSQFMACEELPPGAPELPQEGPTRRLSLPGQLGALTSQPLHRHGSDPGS
row,SMILES,"hERG current change (%, negative = inhibition) at 10uM"
1,NC(=O)CSc1nc2c(c(=O)n1-c1ccccc1)C1(CCCCC1)Cc1ccccc1-2,15.1%
2,Cc1cc(C)c(C#N)c(SCc2nc3ccccc3[nH]2)n1,-9.19%
3,Cc1ccc(NC(=O)CC(C)S(=O)(=O)c2ccc3c(c2)NC(=O)CO3)c(Cl)c1 (centres unmarked),14.1%
4,COc1ccc(NC(=O)C2CCCN(S(=O)(=O)c3ccc(C)cc3)C2)cc1OC (centres unmarked),20.4%
5,O=C(O)C(=O)O.O=C(c1cccs1)N1CCN(Cc2cccc([N+](=O)[O-])c2)CC1,-33.1%
6,CCC(C)NC(=O)c1cc2c(=O)n3cccc(C)c3nc2s1 (centres unmarked),-4.95%
7,O=C(NCCc1c[nH]c2ccccc12)/C(=C/c1cccnc1)NC(=O)c1cccs1,-19.1%
8,O=C(c1ccc(F)cc1)n1c(=S)nc2ccccn21,-1.25%
9,CCOC(=O)c1c(NC(=O)CN2C(=O)NC(C)(c3ccccc3)C2=O)sc(C)c1C (centres unmarked),6.2%
10,Cc1ccnc(NC(=O)Cc2ccc(-c3ccccc3)cc2)c1,16.4%
11,CS(=O)(=O)c1ccccc1-c1nc(-c2ccc([N+](=O)[O-])cc2)no1,0.719%
12,CC1=C(C(=O)OCc2ccccc2)C(c2ccccc2Br)NC(=O)N1 (centres unmarked),14.8%
13,CC(C)c1ccccc1NS(=O)(=O)N(C)C,13.9%
14,CN(C(=O)c1ccc(NC(=O)Cc2ccc(NC(=O)C3CCCN(C(=O)c4ccccc4)C3)cc2)cc1)C1CC1 (centres unmarked),15.4%
15,O=C(NCc1cccnc1)C1CCC(CNS(=O)(=O)c2cccc3nsnc23)CC1 (centres unmarked),-9.63%
16,O=C(NCCc1nnc2ccc(N3CCCCCC3)nn12)c1ccccc1F,-7.75%
17,CCOC(=O)c1c(NC(=O)CSc2nc3ccc(OC)cc3[nH]2)sc2c1CC(C)(C)NC2(C)C,-48.5%
18,CCN(CC)CCCNC(=O)c1cc2c(-c3cccc(OC)c3)nn(C)c2s1,-44.7%
19,Cc1c(C(=O)OCC[N+]2(C)CCCCC2)oc2ccccc12.[I-],14.3%

row,SMILES,"hERG current change (%, negative = inhibition) at 10uM"
1,Fc1ccccc1N1CCN(c2ncnc3nc[nH]c23)CC1,13.4%
2,CCCC12CN3CC(C)(CN(C1)C31CCCCC1)C2=O,7.73%
3,CCOc1ccc(-n2c(SCc3cc(=O)oc4cc(C)c(C(C)C)cc34)nnc2-c2cccnc2)cc1,-37.2%
4,O=C(CSc1ccc2ccccc2n1)NCc1ccc2c(c1)OCO2,-4.68%
5,Cc1ccc(Cl)cc1N1CCN(C(=S)NCc2ccco2)CC1,37.1%
6,Cc1ccc(N2CCN(S(=O)(=O)c3ccc(Cl)s3)CC2C)cc1 (centres unmarked),18.1%
7,Cc1ccc(S(=O)(=O)N2CCN(C(=S)NCc3ccc4c(c3)OCO4)CC2)cc1,-13.1%
8,Cc1nn(CCC#N)c2nc(C(F)(F)F)[nH]c(=O)c12,-10.5%
9,O=C(CS(=O)(=O)c1ccc(F)cc1)N1CCN(c2ccccc2)CC1,-42.4%
10,COc1cccc(/C=N/n2c(-c3cc(C)[nH]n3)n[nH]c2=S)c1O,12.6%
11,CCC1(c2ccccc2)NC(=O)N(CC(=O)Nc2ccc3c(C)cc(=O)oc3c2)C1=O (centres unmarked),14.7%
12,O=S(=O)(CC(CN1CCOCC1)N1CCOCC1)c1ccccc1 (centres unmarked),-1.61%
13,O=C(Nc1nccs1)c1cc(S(=O)(=O)N2CCCCC2)ccc1Cl,2.28%
14,CC(OC(=O)CC1Sc2ccccc2NC1=O)C(=O)NC1CCCC1 (centres unmarked),6.22%
15,Cn1c(N)c(C(=O)COC(=O)CNS(=O)(=O)c2cccc(Cl)c2)c(=O)n(C)c1=O,-13.2%
16,CN1C(=O)/C(=C/c2ccccc2F)Sc2ccc(C(=O)N3CCCC3)cc21,-8.83%
17,COc1ccc(OCc2n[nH]c(=S)n2N)cc1,37.8%
18,N#CCSc1nc2sc3c(c2c(=O)n1C1CCCCC1)CCCC3,-0.102%
19,CCc1ccccc1N(CC(=O)NCC1CCCO1)C(=O)CCC(=O)Nc1nccs1 (centres unmarked),27%

row,SMILES,"hERG current change (%, negative = inhibition) at 10uM"
1,CN(CC(=O)Nc1ccccc1Br)C(=O)c1ccc(-c2ccc(Cl)cc2)o1,5.51%
2,Cc1cc(=O)n(CC(C)O)c(O)c1C#N (centres unmarked),16.8%
3,COc1ccccc1N1CCN(Cc2cccc(OC)c2OC)CC1,-12.5%
4,O=c1[nH]c(=O)n(CCC2=CCCCC2)c(O)c1C=NCCCn1ccnc1,-17.6%
5,Cc1cccc2nc(COc3ccc4ccccc4c3Br)cn12,-9.01%
6,Cc1ccc(C(=O)O/N=C\c2ccc(N3CCCCC3)c([N+](=O)[O-])c2)cc1,12.8%
7,Cc1ccccc1Nc1nc(N)nc(COC(=O)/C=C/c2ccco2)n1,-1.28%
8,Cc1cccn2c(=O)c3cc(C(=O)NC4CCCC4)c(=N)n(Cc4ccc(F)cc4)c3nc12,-68.2%
9,CC(=O)c1c(N2CCCC2)nc(=S)n(-c2ccccc2)c1C,-0.251%
10,O=C(NCCCc1ccccc1)C(=O)NCC1OCCN1S(=O)(=O)c1cc(F)ccc1F (centres unmarked),-15%
11,CCOc1ccccc1CNC(=O)CCCC(=O)n1nc(C)c2ccccc21,16%
12,O=C(COc1ccc(S(=O)(=O)N2CCCC2)cc1Cl)NCc1ccccn1,4.66%
13,C[C@H](NC(=O)N1CCn2c1nc1ccccc12)C(=O)NCC1CCCO1 (some centres unmarked),20.8%
14,CC1=Nn2c(nnc2-c2cccs2)SC1,4.76%
15,CCN(CC)c1ccc(C=N/C(C#N)=C(\N)C#N)cc1,-3.71%
16,COc1ccc(/C=C2\CCC(C3CCCC3)C2=O)c(OC)c1OC (centres unmarked),6.95%
17,Cc1nn(-c2ccccc2)c(Cl)c1C(=O)NCc1ccccc1F,21.2%
18,CCOC(=O)c1ccc2c(c1)n(CC)c(C)[n+]2CC.[I-],23.7%
